Hit rate of the full screen: of about 320,000 compounds, about 9,100 (2.8%) were called active. This list was built around the results that the source calls inconclusive (neither active nor inactive); the mix of calls is not that of the screen. The call rests on the fitted dose curve; in most records, active means well fitted activation curve with a large enough effect; inconclusive means small, poorly fitted or top-dose-only effect; inactive means no such curve, though single readings can be large or run the other way. No potency is given beside an inconclusive call; the fits are too rough.
experiment: qHTS Assay for Rab9 Promoter Activators; conditions: Huh7 Rab9 promoter-luciferase reporter, luminescence, 24 h; series mostly up to 9.22 µM; activation, negative = inhibition: at the top concentration; further: nearly all actives have a fitted effect of over 60% in size; on activation, negative = inhibition: % of control where 0% means no effect
Method in brief: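 Measured in stably transfected Huh7 cells bearing a Rab9 promoter–luciferase construct: 24 h compound treatment at 37 °C, followed by luminescence detection.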
Potency means the concentration at half of the fitted maximal effect; tags describe the fitted curve by direction and shape.

Compound | Potency | activation, negative = inhibition
O=C(CSc1ccccn1)NCc1ccc2c(c1)OCO2 | inconclusive [activator, partial curve] | 
O=C(COC(=O)c1ccc[nH]c1=O)c1ccc(Cl)s1 |  | inactive: 2.79%
CC(=O)Nc1ccc(/C=N/Nc2nc3ccccc3[nH]2)cc1 | inconclusive [activator, partial curve] | 
O=C(O)c1ccc(N/N=C/c2cccc3cccnc23)cc1 | active: 0.282 µM | 
CCCc1cc(=O)[nH]c(SCc2nc3ccccc3o2)n1 | inconclusive [activator, single point] | 
COc1cccc(NC(=O)c2ccc(NC(=O)C(C)(C)C)cc2)c1 | inconclusive [activator, partial curve] | 
COCCCNC(=O)COc1cc2c(c3oc(=O)c(C)c(C)c13)CCC(C)(C)O2 | inconclusive [activator, single point] | 
Cc1ccc(COc2ccc(Br)cc2/C=N/O)cc1 | inconclusive [activator, single point] | 
Cc1ccc(NC(=O)c2c(C)nc3ccccn23)cc1C | active: 1.78 µM | 
COc1ccc(NC(=O)c2sccc2C)cn1 | inconclusive [activator, single point] | 
CN1CCC(=O)N(CCSc2ccccc2)CC1 | inconclusive [activator, partial curve] | 
O=C(CSc1nnc(NC(=O)c2ccccc2)s1)NC1CCCC1 | inconclusive [activator, partial curve] | 
COc1cc(OC)cc(C(=O)Nc2ccc(-n3cnnn3)c(C)c2)c1 | inconclusive [activator, single point] | 
O=C(CCCc1ccccc1)Nc1ccc(Br)cc1F |  | inactive: 24.7%
O=C(O)c1cccc(NC(=S)N/N=C/c2cccnc2)c1 | inconclusive [activator, partial curve] | 
CCOC(=O)c1cc(C(=O)Nc2sc3c(c2C#N)CCCC3)nn1C | inconclusive [activator, partial curve] | 
O=C(Nc1nc(-c2cccs2)cs1)c1cc2ccccc2oc1=O | inconclusive [activator, partial curve] | 
CCCCCOc1ccc(NS(C)(=O)=O)cc1 | inconclusive [activator, partial curve] | 
O=C(O)Cc1ccc(NCc2ccccc2Cl)cc1 | inconclusive [activator, partial curve, poor fit] | 
O=[N+]([O-])c1cc(N=Nc2ccc3ccccc3c2)ccc1O | active: 2 µM | 
CCOC(=O)C1=C(C)N2C(=C(C#N)[C@@H]1c1ccc(C(=O)OC)cc1)SC[C@@]2(O)C(C)(C)C |  | inactive: -2.58%
CCN(Cc1ccccc1)C(=O)CCc1nnc(CCCc2ccccc2)o1 | inconclusive [activator, single point] | 
NNc1ncnc2c1cnn2-c1ccccc1 |  | inactive: 0.392%
Cc1ccc(NC(=O)c2ccc3ncsc3c2)cc1S(=O)(=O)N(C)C | active: 0.355 µM | 
COc1cc(Cl)ccc1OCc1cc(C(=O)N2C[C@@H]3CCC[C@H]2C3)no1 | active: 3.98 µM | 
O=c1c2c3c(sc2nc2n1CCCS2)CCCC3 | inconclusive [activator, partial curve, poor fit] | 

Compound | Potency | activation, negative = inhibition
Nn1c(SCC(=O)Nc2ccc(N3CCOCC3)cc2)nnc1-c1ccccc1F | inconclusive [activator, single point] | 
COc1ccc(CC2S/C(=N/N=C/c3ccc(O)cc3)NC2=O)cc1 (stereo unspecified) | inconclusive [activator, single point] | 
Cc1sc(=NC(=O)c2ccco2)n(C)c1-c1ccc(Cl)cc1 | active: 2.82 µM | 
COc1ccc(/C=N/Nc2ccc([N+](=O)[O-])cc2)cc1O | inconclusive [activator, single point] | 
O=C(Nc1ccccc1)NC1CCCCC1 | inconclusive [activator, single point] | 
CC(Oc1ccc2c(-c3ccccc3)cc(=O)oc2c1)C(=O)N1CCC[C@@H]1C(N)=O (stereo partly specified) | inconclusive [activator, partial curve] | 
COc1ccc(C(=O)O/N=C(\N)c2ccc(Cl)cc2)cc1 | inconclusive [activator, single point] | 
COc1ccc(NC(=O)c2cccs2)cc1O | inconclusive [activator, single point] | 
Cc1cc(-c2ccccc2)nc(N2CCC(C(=O)NC(C)C)CC2)n1 | inconclusive [activator, partial curve] | 
Cc1cccc2c1cnn2C(=O)Nc1ccc(Br)cc1F | inconclusive [activator, full curve, poor fit] | 
CCCCOC(=O)c1ccc(NC(=O)/C=C/c2cccs2)cc1 |  | inactive: 3.52%
CN1CCN(c2ccc(NC(=S)NC(=O)/C=C/c3ccco3)cc2)CC1 | inconclusive [activator, partial curve] | 
COc1ccc(-c2cc(C(=O)NC(C)c3ccccn3)c3ccccc3n2)cc1OC (stereo unspecified) |  | inactive: -6.26%
O=C(NCC(=O)N1CCN(c2ncccn2)CC1)c1cccs1 | inconclusive [activator, single point] | 
O=C(CNc1ccc2c(c1)OCO2)N/N=C\c1ccccc1Cl |  | inactive: -4.83%
O=C(Cc1nc2ccccc2[nH]c1=O)c1ccccc1 | active: 1.41 µM | 
Cc1cc(C(=O)O)ccc1N/C=C1\CCCC(C)C1=O (stereo unspecified) | inconclusive [activator, full curve] | 
COc1ccc2nc(NC(=O)c3c(C)noc3C)sc2c1 | inconclusive [activator, partial curve] | 
O=C(CCS(=O)(=O)c1ccccc1)N(CCCN1CCOCC1)c1nc2ccc(F)cc2s1 | inconclusive [activator, partial curve] | 
CCOc1ccc(OCCCC(=O)N(CC)CC(=O)Nc2c(F)cccc2F)cc1 |  | inactive: 0.777%
Cc1cc(N2CCOCC2)nc2ccc(NC(=O)CCC(=O)N3CCCC(C)C3)cc12 (stereo unspecified) | inconclusive [activator, full curve] | 
COc1cc(NC(=O)c2ccccc2Cl)ccc1NC(=O)c1ccco1 | active: 2.82 µM | 
COc1ccc(/C=C2/CC/C(=C\c3ccc(OC)c(OC)c3OC)C2=O)c(OC)c1OC |  | inactive: -2.87%
O=C(Cc1ccc2cccnc2c1)c1ccc(O)cc1O | inconclusive [activator, single point] | 
Cc1ccc(-c2nc3ccsc3c(=O)[nH]2)cc1 | inconclusive [activator, single point] | 
N/C(=N\OC(=O)CCC1CCCCC1)c1ccccn1 | inconclusive [activator, partial curve] | 

Compound | Potency | activation, negative = inhibition
COc1ccc(C(=O)CCNc2ccc3c(c2)OCCO3)cc1 |  | inactive: 23.6%
Cn1cc(C(=O)N/N=C/c2ccc3c(c2)OCO3)c2ccccc21 | inconclusive [activator, full curve, poor fit] | 
CCCCn1c(SCC(=O)NCc2cccs2)nc2c1c(=O)n(C)c(=O)n2C |  | inactive: 8.01%
O=C(Nc1ccccn1)c1ccc(C(=O)Nc2ccccn2)cc1 | inconclusive [activator, partial curve] | 
CC(NC(=O)c1ccccc1)C(=O)OCC(=O)c1ccc(Br)cc1 (stereo unspecified) |  | inactive: 17.3%
COc1ccc(NC(=O)Nc2nnc(-c3ccncc3)s2)cc1 | inconclusive [activator, single point] | 
O=C(NCCNC(=O)c1ccc(-c2ccc(Cl)c(Cl)c2)o1)c1cnccn1 |  | inactive: 1.96%
Cc1ccc(O)c(C(=O)CC(=O)c2ccc(Cl)cc2)c1 | inconclusive [activator, single point] | 
c1ccc(CN2CCN(c3cnc4ccccc4n3)CC2)cc1 | inconclusive [activator, single point] | 
NC(=O)COc1ccc2cc(-c3ccc(F)cc3)c(=O)oc2c1 | inconclusive [activator, partial curve] | 
COc1ccc(CNc2nc3ccccc3s2)cc1OC | inconclusive [activator, partial curve] | 
CC1C(=O)NN=C1C(=O)N/N=C\C(Br)=C\c1ccccc1 (stereo unspecified) | active: 2.24 µM | 
O=C(O)[C@@H]1CCCN(S(=O)(=O)c2cccc3cccnc23)C1 |  | inactive: -0.482%
O=C1NN(c2cccc(Br)c2)C(=O)/C1=C/c1ccc(-c2cc([N+](=O)[O-])ccc2O)o1 |  | inactive: -2.45%
CCCCC(=O)Nc1ccc2c(c1)OCCO2 | inconclusive [activator, single point] | 
O=C(c1ccc(Cl)c(Cl)c1)N1CCN(c2ccccn2)CC1 |  | inactive: -0.786%
CCN(CC)CCNC(=O)c1cn(CCOC)c(=O)c2c1c1ccccc1n2C |  | inactive: -2.86%
Cc1ccc(NC(=S)NC2CCCC2)cc1C | inconclusive [activator, partial curve] | 
O=C(NNc1ncnc2ccccc12)c1cccc(Cl)c1 | active: 1.78 µM | 
COc1ccc(NC(=O)c2nc3nccc(C)n3n2)cn1 | inconclusive [activator, partial curve, poor fit] | 
CC(C)(C)c1ccc(C(=O)NCc2ccccc2)cc1 | active: 6.31 µM | 
N=c1oc2ccccc2cc1C(=O)Nc1cccc(F)c1 | inconclusive [activator, partial curve] | 
COc1ccccc1C(=O)NC(=O)CSc1nnc(C)s1 |  | inactive: 5.93%
COc1cccc(/C=N/n2c(N)nc3ccccc32)c1OC | inconclusive [activator, single point] | 

From PubChem BioAssay AID485297 (National Center for Advancing Translational Sciences (NCATS), 2010)
